Data taken from the supplement of paper PMC9446081.
In all, about 39,000 compounds went through this assay and about 220 (0.56%) showed activity. Some of the results follow.

Test system: Escherichia coli K-12 BW25113
Assay: relative growth (OD600 normalised to plate interquartile mean) (fraction); higher = less growth inhibition, active = 0.2 or less
Settings: 50 µM; LB; incubation time: overnight (16-24 h)
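Further: static incubation at 37 °C against the wild-type strain, values averaged over two biological replicates.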

| SMILES | relative growth |
| --- | --- |
| N#CC(c1ccccc1)c1ccccc1 | inactive: 0.939 |
| O=c1n(Cl)c(=O)n(Cl)c(=O)n1Cl | inactive: 0.843 |
| Cc1ccc2cc3c(ccc4ccccc43)c3c2c1CC3 | inactive: 1.02 |
| O=C(NC(=O)c1c(F)cccc1F)Nc1cc(Cl)c(OC(F)(F)[C@@H](F)C(F)(F)F)cc1Cl | inactive: 1.01 |
| ClC1C(Cl)C(Cl)C(Cl)C(Cl)C1Cl (stereo not given) | inactive: 1.03 |
| Cc1cccc(C)c1NC(=O)CN1CCCC1=O | inactive: 1.02 |
| CCC1(c2ccccc2)C(=O)NC(=O)NC1=O | inactive: 1.03 |
| CC[C@@H](C)C(=O)O[C@H]1[C@H](O)[C@H]2[C@@H](CN3C[C@@H](C)CC[C@@H]3[C@@]2(C)O)[C@H]2C[C@]34O[C@]5(O)[C@@H](OC(=O)[C@@](C)(O)[C@@H](C)O)CC[C@@]3(C)[C@@H]5[C@@H](OC(C)=O)[C@@H](OC(C)=O)[C@@H]4[C@@]21O | inactive: 1.02 |
| C[C@H](CO)N1C[C@H](C)[C@@H](CN(C)C(=O)Oc2cccc3ccccc23)OCc2cnnn2CCCC1=O | inactive: 1.01 |
| COC(=O)[C@]1(Cc2ccccc2CN=[N+]=[N-])N=C(c2ccc(OCCCO)cc2)O[C@@H]1c1ccccc1N=[N+]=[N-] | inactive: 1.04 |
| O=c1[nH]c(=O)n(Cl)c(=O)n1Cl | inactive: 0.971 |
| N#C[C@H](O[C@@H]1O[C@H](CO)[C@@H](O)[C@H](O)[C@H]1O)c1ccc(O)cc1 | inactive: 1.01 |
| CCN(C)C(=O)Oc1cccc(C(C)N(C)C)c1.O=C(O)C(O)C(O)C(=O)O (stereo not given) | inactive: 0.922 |
| N[C@@H](CO)Cc1ccccc1 | inactive: 0.996 |
| COP(=O)(OC)OC=C(Cl)Cl | inactive: 1.01 |
| COc1cccc(C2(N)CCCC2)c1 | inactive: 1.02 |
| S=C=NCc1ccccc1 | inactive: 0.603 |
| CC(=O)O[C@H]1C[C@H](O[C@H]2[C@@H](O)C[C@H](O[C@H]3[C@@H](O)C[C@H](O[C@H]4CC[C@@]5(C)[C@@H](CC[C@H]6[C@@H]5C[C@@H](O)[C@]5(C)[C@@H](C7=CC(=O)OC7)CC[C@]65O)C4)O[C@@H]3C)O[C@@H]2C)O[C@H](C)[C@H]1O[C@@H]1O[C@H](CO)[C@@H](O)[C@H](O)[C@H]1O | inactive: 0.986 |
| O=c1cccc2n1C[C@@H]1C[C@H]2CN(C[C@H](O)/C=N/n2cnnc2)C1 | inactive: 0.993 |
| C[C@]12CC[C@@H]3c4ccc(OC(=O)N(CCCl)CCCl)cc4CC[C@H]3[C@@H]1CC[C@@H]2OP(=O)(O)O | inactive: 1.02 |

| SMILES | relative growth |
| --- | --- |
| CC[C@@H](C(=O)[C@@H](C)[C@@H](O)[C@H](C)[C@@H]1O[C@@H]([C@@H](CC)C(=O)O)CC[C@@H]1C)[C@H]1O[C@]2(C=C[C@@H](O)[C@]3(CC[C@@](C)([C@H]4CC[C@](O)(CC)[C@H](C)O4)O3)O2)[C@H](C)C[C@@H]1C | inactive: 0.909 |
| CS(=O)(=O)N1CCO[C@]2(COCCN(Cc3ccncc3)C2)C1 | inactive: 0.898 |
| C[C@@H]1NC[C@@H]2CCCN2C1=O | inactive: 0.956 |
| Cn1ccnc1C(=O)N[C@H]1CN[C@@H]2CCCO[C@@H]12 | inactive: 1.03 |
| CO[C@H]1[C@@H](O)[C@@H](C)O[C@H](O[C@H]2CC[C@@]3(C)[C@H]4CC[C@@]5(C)[C@@H](C6=CC(=O)OC6)CC[C@]5(O)[C@@H]4CC[C@]3(O)C2)[C@@H]1O | inactive: 0.989 |
| C=CCC1(C(C)CCC)C(=O)N=C([S-])NC1=O.[Na+] (stereo not given) | inactive: 1.03 |
| CCN(Cc1ccc(Cl)nc1)C(=C[N+](=O)[O-])NC | inactive: 0.954 |
| O=[N+]([O-])C(Br)(CO)CO | active: 0.0475 |
| NCCc1nccs1 | inactive: 0.991 |
| CCOC(=O)C1C(C=C(C)C)C1(C)C (stereo not given) | inactive: 1.07 |
| CC(C)(C)c1ccc(O)cc1 | inactive: 0.998 |
| [N-]=[N+]=Nc1ccccc1C[C@]1(C(N)=O)N=C(c2ccc(OCCCO)cc2)O[C@H]1c1ccccc1N=[N+]=[N-] | inactive: 1.03 |
| COCC(=O)N1[C@@H]2Cn3c(ccc(C4=CCCC4)c3=O)[C@H]1[C@@H](C(=O)OC)[C@@H]2CO | inactive: 1.01 |
| CN(C)C(=O)[C@]1(Cc2ccccc2CN=[N+]=[N-])N=C(c2ccc(OCCCO)cc2)O[C@@H]1c1ccccc1N=[N+]=[N-] | inactive: 1.02 |
| CC=C(C)C(=O)OC1CCC2(C)C3CCC4C5(O)CC(O)C6(O)C(CN7CC(C)CCC7C6(C)O)C5(O)CC42OC13O.Cl (stereo not given) | inactive: 1.07 |
| CN(C)C(=O)Oc1cccc([N+](C)(C)C)c1.[Br-] | inactive: 1.19 |
| C=CCOC(=O)[C@@H]1[C@H](C(=O)OC)N(C)[C@@H](c2ccccc2)[C@]12C(=O)Nc1ccc(I)cc12 | inactive: 1.04 |
| CC(=O)c1c(O)c(C)c(O)c(Cc2c(O)c3c(c(C(=O)/C=C/c4ccccc4)c2O)OC(C)(C)C=C3)c1O | inactive: 0.958 |
| CC(=O)N1CCCC[C@]12CCNC2 | inactive: 0.984 |
| N[C@@H]1C[C@H]1c1ccccc1 | inactive: 1.01 |
